The whole screen tested about 310,000 compounds, of which about 14,000 (4.5%) showed an effect of 50% or more. The effect is printed as a negative number. This is one part of the list.
What follows are compounds tested against human ether-à-go-go-related gene (hERG) potassium channel (human, UniProt Q12809) (assay: primary screen, population patch clamp on CHO cells stably expressing hERG).
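Note: peak tail current of the secondary pulse compared with the same well before compound.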

human ether-à-go-go-related gene (hERG) potassium channel, sequence (Q12809 whole entry, looked up): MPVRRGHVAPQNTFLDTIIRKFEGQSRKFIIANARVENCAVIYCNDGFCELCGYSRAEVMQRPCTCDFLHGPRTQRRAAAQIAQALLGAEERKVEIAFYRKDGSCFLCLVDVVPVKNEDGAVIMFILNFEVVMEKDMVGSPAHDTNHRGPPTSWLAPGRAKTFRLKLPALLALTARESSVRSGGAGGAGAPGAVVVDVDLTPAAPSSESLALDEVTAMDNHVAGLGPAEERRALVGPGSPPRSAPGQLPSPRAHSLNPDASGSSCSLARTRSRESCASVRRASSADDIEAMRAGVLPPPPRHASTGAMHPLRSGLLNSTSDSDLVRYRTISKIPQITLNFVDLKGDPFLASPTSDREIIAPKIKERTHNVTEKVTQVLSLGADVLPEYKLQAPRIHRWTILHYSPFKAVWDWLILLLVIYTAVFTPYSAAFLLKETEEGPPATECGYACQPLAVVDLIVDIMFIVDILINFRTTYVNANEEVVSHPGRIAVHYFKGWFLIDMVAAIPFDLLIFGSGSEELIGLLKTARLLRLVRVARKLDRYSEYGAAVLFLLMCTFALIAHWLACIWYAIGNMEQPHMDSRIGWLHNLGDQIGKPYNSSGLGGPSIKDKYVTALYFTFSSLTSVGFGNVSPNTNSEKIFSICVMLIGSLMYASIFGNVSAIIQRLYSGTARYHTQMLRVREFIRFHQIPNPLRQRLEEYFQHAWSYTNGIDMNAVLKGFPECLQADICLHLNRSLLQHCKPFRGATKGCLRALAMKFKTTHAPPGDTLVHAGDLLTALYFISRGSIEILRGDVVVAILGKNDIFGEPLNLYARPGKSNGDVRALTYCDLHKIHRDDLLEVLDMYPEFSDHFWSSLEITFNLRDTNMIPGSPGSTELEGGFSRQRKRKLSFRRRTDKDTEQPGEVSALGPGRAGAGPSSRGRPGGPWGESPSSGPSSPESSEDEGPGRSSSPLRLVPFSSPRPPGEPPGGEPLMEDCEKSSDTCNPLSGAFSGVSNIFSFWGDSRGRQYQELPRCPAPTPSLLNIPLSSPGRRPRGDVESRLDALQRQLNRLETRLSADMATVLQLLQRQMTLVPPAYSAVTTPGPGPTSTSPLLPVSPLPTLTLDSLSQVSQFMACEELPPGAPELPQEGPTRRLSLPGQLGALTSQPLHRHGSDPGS

Going from `CCOC(=O)N1CCN(C(=O)CN(Cc2ccccc2)S(=O)(=O)c2ccc(OC)c(C)c2)CC1` to `Cc1cc(=O)[nH]c(SCC(=O)N2CCC(Cc3ccccc3)CC2)n1`, the “hERG current change (%, negative = inhibition) at 10uM” value rises from -24.5% to -11.7%.

First: CN1CCN(c2nc3ccccn3c(=O)c2C=C2C(=O)N(C)C(=O)N(C)C2=O)CC1
Second: CN1CCN(CCCNC(=O)c2cc3c(=O)n(C)c4ccccc4c3s2)CC1
The “hERG current change (%, negative = inhibition) at 10uM” value of the first is higher: 10.5% for the first, 1.89% for the second.

Going from `Cc1cc(C)cc(-n2nnn(C3C/C(=N/NC(N)=S)C4OCC3O4)c2=S)c1` (centres unmarked) to `Cc1cc(C)cc(C(=O)OCC(=O)N2CCCCCC2)c1`, the “hERG current change (%, negative = inhibition) at 10uM” value falls from 12.3% to 7.01%.

Compared with `O=C(Oc1cccc2c(OC(=O)N3CCOCC3)cccc12)N1CCOCC1`, `O=C(c1ccccc1Cl)N1CCN(Cc2ccc3c(c2)OCO3)CC1` is lower in “hERG current change (%, negative = inhibition) at 10uM” value: 12.5% for the first, -21.1% for the second.

First: COc1ccc(N2CCN(C3CCCCC3NS(=O)(=O)c3ccccc3)CC2)cc1 (centres unmarked)
Second: COc1ccc(CNc2ncc(-c3ccccc3)n2C)cc1
The “hERG current change (%, negative = inhibition) at 10uM” value of the first is higher: -2.38% for the first, -32.6% for the second.

First: COc1ccc(C)cc1NC(=O)CNC(C)C(=O)Nc1ccc(C(C)=O)cc1 (centres unmarked)
Second: COc1ccccc1NC(=O)Cc1nnc(SCC(=O)c2ccc(F)cc2)n1C
The “hERG current change (%, negative = inhibition) at 10uM” value of the first is higher: -10.3% for the first, -16.3% for the second.

First: CCN(Cc1nc2cc(Cl)ccc2c(=O)[nH]1)C(=O)COc1ccccc1Cc1ccccc1
Second: COC(=O)Cc1ccc(N(Cc2ccccc2F)S(=O)(=O)c2ccc(Cl)cc2)cc1
The “hERG current change (%, negative = inhibition) at 10uM” value of the first is lower: -20.7% for the first, 4.17% for the second.

First: CC(C)(C)c1ccc(/C=N/NC(=O)C2CCCC2)cc1
Second: CC(C)(C)c1ccc(-c2cc(N)n[nH]2)cc1
The “hERG current change (%, negative = inhibition) at 10uM” value of the first is lower: -12.3% for the first, -6.11% for the second.

Going from `Cc1ccc(-n2c(CNc3ccc(F)cc3)nnc2SCC(=O)N2CCCC2)cc1` to `O=C(CSc1ccc(-c2ccncc2)nn1)N1CCCCC1`, the “hERG current change (%, negative = inhibition) at 10uM” value rises from -31.7% to -3.95%.

Going from `CC(C)c1c(C(=O)N/N=C/c2cccc3ccccc23)nnn1-c1nonc1N` to `CCCOc1ccc(/C=N/NC(=S)Nc2ccccc2[N+](=O)[O-])c(O)c1`, the “hERG current change (%, negative = inhibition) at 10uM” value rises from 10.7% to 24.3%.

First: COc1ccc(Oc2cc(F)nc(N)n2)cc1
Second: CCSc1nc(O)cc(=O)n1-c1ccc(OC)cc1
The “hERG current change (%, negative = inhibition) at 10uM” value of the first is lower: -13.8% for the first, 3.73% for the second.

First: COC(=O)C(O)(CC(=O)Nc1ccc(Cl)cc1Cl)C(F)(F)F (centres unmarked)
Second: COC(=O)C1=CN(C)C=C(C(=O)OC)C1c1ccc(Cl)cc1Cl
The “hERG current change (%, negative = inhibition) at 10uM” value of the first is lower: 8.05% for the first, 15.8% for the second.

Going from `Cc1ccc(NC(=O)Nc2ccccc2F)cc1S(=O)(=O)N1CCOCC1` to `O=S(=O)(c1ccc(-c2csc(-c3cccnc3)n2)cc1)N1CCOCC1`, the “hERG current change (%, negative = inhibition) at 10uM” value falls from 5.25% to -34%.

First: COC(=O)c1ccccc1NC(=O)c1nc2nc(C)cc(C(F)F)n2n1
Second: CCOC(=O)CC(=O)Nc1nc2ccccc2s1
The “hERG current change (%, negative = inhibition) at 10uM” value of the first is higher: -5.65% for the first, -8.27% for the second.

Going from `O=C(NCCO)C1(c2ccccc2)CCCC1` to `COC(=O)C1(C)CCC(C(=O)Nc2ccccc2)C1(C)C` (centres unmarked), the “hERG current change (%, negative = inhibition) at 10uM” value falls from 20.1% to 1.38%.

Going from `Cc1ccc(S(=O)(=O)NC2(C(F)(F)F)NC(=O)N(CCc3ccccc3)C2=O)cc1` (centres unmarked) to `O=C(O)c1cccc(S(=O)(=O)Nc2ccccc2Cl)c1`, the “hERG current change (%, negative = inhibition) at 10uM” value falls from 14% to -2.26%.

Going from `COC(=O)C1=C(C(=O)OC)[C@@H]2N(C)c3ccccc3[C@@]23C[C@@H](CO)N(C(=O)C2CCC2)C3=N1` to `COC(=O)C1=C(c2ccc3ccccc3c2)C[C@@H]2CC[C@H]1N2C(=O)NCC1CC1`, the “hERG current change (%, negative = inhibition) at 10uM” value falls from -1.38% to -6.28%.

First: O=C(NCc1ccccc1)c1ccc(OCC2CCCO2)cc1 (centres unmarked)
Second: N#C/C(=C\c1ccc(O)cc1)C(=O)NCc1ccccc1
The “hERG current change (%, negative = inhibition) at 10uM” value of the first is lower: 8.41% for the first, 8.49% for the second.

Going from `O=C(Cc1ccc(Cl)cc1)Nc1ccc(Cl)cn1` to `Cc1cccc(NC(=O)CN(C)S(=O)(=O)c2ccc(Cl)cc2)n1`, the “hERG current change (%, negative = inhibition) at 10uM” value falls from -6.38% to -6.82%.

Compared with `Cc1cc(C)c(C(=O)/C=C/c2cccs2)c(=O)[nH]1`, `O=C(COC(=O)/C=C/c1cccc(Cl)c1)Nc1ccc2[nH]c(=O)[nH]c2c1` is lower in “hERG current change (%, negative = inhibition) at 10uM” value: 20% for the first, 12.9% for the second.

Compared with `CN1CCN(S(=O)(=O)c2ccc3c4c(cccc24)C(=O)N3)CC1`, `CCCCNS(=O)(=O)c1ccc(S(=O)(=O)N2CCC3(CC2)OCCO3)cc1` is higher in “hERG current change (%, negative = inhibition) at 10uM” value: -0.59% for the first, 9.82% for the second.

First: COC(=O)[C@H](CCSC)NC(=O)Nc1ccc(C)cc1
Second: CCOc1ccc(NC(=O)NC2CC(=O)N(c3ccc(OC)cc3)C2)cc1 (centres unmarked)
The “hERG current change (%, negative = inhibition) at 10uM” value of the first is higher: 11.6% for the first, -4.43% for the second.

First: O=C(Nc1ccc2nc3n(c(=O)c2c1)CCCC3)c1cccc(F)c1
Second: COc1cccc2cc(C(=O)N3CCCc4ccccc43)oc12
The “hERG current change (%, negative = inhibition) at 10uM” value of the first is lower: -43.9% for the first, -16.8% for the second.

Going from `CCN(C(=O)Cn1c(=O)oc2ccccc21)c1cccc(C)c1` to `CCC1=C/C(=C/N(C)c2ccccc2)C(=O)S1`, the “hERG current change (%, negative = inhibition) at 10uM” value falls from 6.38% to -9.69%.

Going from `COc1ccc(NC(=O)COc2ccc3c(c2)OCO3)cc1` to `CCOc1ccc(-c2nnn(CC(=O)NCc3ccc4c(c3)OCO4)n2)cc1`, the “hERG current change (%, negative = inhibition) at 10uM” value falls from 6.65% to -0.864%.

Going from `CCOC(=O)CNC(=S)N(CCCN1CCCCCC1)Cc1cccs1` to `CC1CCCCN1CCNC(=O)C1CCN(S(=O)(=O)c2cccc3nsnc23)CC1` (centres unmarked), the “hERG current change (%, negative = inhibition) at 10uM” value rises from -65.8% to 2.44%.

Compared with `COC(=O)c1ccc(COc2ccc3c4c(c(=O)oc3c2)CCC4)o1`, `Cc1cc(C(=O)NCc2ccc(S(N)(=O)=O)cc2)c(C)o1` is lower in “hERG current change (%, negative = inhibition) at 10uM” value: 16.9% for the first, 6.23% for the second.

Going from `C=CCn1c(O)c(C=Nc2ccccc2)sc1=S` to `Cc1cc(C(=O)N/N=C2\CC(=O)CC(C)(C)C2)c(C)n1-c1ccccc1`, the “hERG current change (%, negative = inhibition) at 10uM” value rises from 20.6% to 28.9%.

First: CN(C)c1ccc(C2C3CCCc4ccccc4C3=NN2C)cc1 (centres unmarked)
Second: Cn1c(CNc2ccc(Br)cc2)nc2ccccc21
The “hERG current change (%, negative = inhibition) at 10uM” value of the first is lower: -27.5% for the first, -17.5% for the second.

Compared with `CNC(=O)c1[nH]cnc1C(=O)Nc1cccc(C)c1`, `Cc1ccc2c(c1)nnn2C1CCN(CC(=O)NNC(=O)c2ccco2)CC1` is higher in “hERG current change (%, negative = inhibition) at 10uM” value: -9.12% for the first, 37.1% for the second.

Compared with `CCN(CC)S(=O)(=O)c1ccc2oc(C(=O)N3CCOCC3)c(C)c2c1`, `Cc1nc2ccc(S(=O)(=O)NCC(=O)N3CCOCC3)cc2s1` is higher in “hERG current change (%, negative = inhibition) at 10uM” value: -23.3% for the first, 6.43% for the second.

Going from `COC(=O)c1ccc(-c2noc(CN(Cc3ccncc3)CC3CCCO3)n2)cc1` (centres unmarked) to `O=C(COC(=O)c1ccc(Br)o1)NCC1CCCO1` (centres unmarked), the “hERG current change (%, negative = inhibition) at 10uM” value rises from -28.5% to 0.0397%.

Compared with `CC1CN(C(=O)CN2C(=O)c3ccccc3C2=O)CC(C)O1` (centres unmarked), `COC(=O)CC/C(O)=C1\C(=O)CC(C)(C)CC1=Nc1ccccc1OC` is lower in “hERG current change (%, negative = inhibition) at 10uM” value: 6.42% for the first, 3.73% for the second.

Compared with `Cc1ccc(C(=O)c2ccc(O)cc2)cc1C`, `COCCNC(=O)c1ccc2c(c1)S(=O)(=O)c1cc(Cl)ccc1C2=O` is lower in “hERG current change (%, negative = inhibition) at 10uM” value: -1.24% for the first, -3.38% for the second.

Going from `CC(C)(C)C(CO)NC(=O)c1ccc[nH]1` (centres unmarked) to `CCCCCC(=O)NC(CC(=O)OC)c1ccc2c(c1)OCO2` (centres unmarked), the “hERG current change (%, negative = inhibition) at 10uM” value rises from 2.26% to 10.7%.

Going from `Clc1cccc(Cl)c1C[n+]1cccc2ccccc21.[Br-]` to `Clc1cccc(NCc2nnc(SCc3ccccc3)o2)c1`, the “hERG current change (%, negative = inhibition) at 10uM” value rises from 1.36% to 3.21%.

First: COc1cc(/C=N/n2c(C)nnc2C)cc(OC)c1OC
Second: Cc1sc2ncn3ncnc3c2c1C
The “hERG current change (%, negative = inhibition) at 10uM” value of the first is lower: 3.79% for the first, 10.1% for the second.

First: O=C1CCN(CCc2ccccc2)CCN1[C@H](CO)c1ccccc1
Second: O=C(CCC(=O)c1ccccc1)NCc1ccccc1
The “hERG current change (%, negative = inhibition) at 10uM” value of the first is lower: -25.7% for the first, -10% for the second.

First: O=C1CCC(c2ccc(-n3ccnc3)cc2)=NN1
Second: Fc1ccc(OCCCCCn2ccnc2)cc1
The “hERG current change (%, negative = inhibition) at 10uM” value of the first is higher: -3.95% for the first, -18.4% for the second.

Compared with `Cn1c(SCc2c(F)cccc2Cl)nc2c(c1=O)SCC2`, `COc1ccc(CN2CCNC(=O)C2CC(=O)N(C)Cc2nonc2C)c(F)c1` (centres unmarked) is lower in “hERG current change (%, negative = inhibition) at 10uM” value: 6.6% for the first, 2.46% for the second.

Going from `C/C(=N\NC(=O)c1cccnc1)c1cccc([N+](=O)[O-])c1` to `O=C(N/N=C/c1ccc([N+](=O)[O-])cc1)c1cccc2cc[nH]c12`, the “hERG current change (%, negative = inhibition) at 10uM” value rises from -1.65% to 12.4%.

Going from `CC(C)(C)C1CCC2(CC1)C(Nc1cccc(C(F)(F)F)c1)=NC(=S)N2CC#N` (centres unmarked) to `CNC(=S)N1CCC(n2cnc3ccccc32)CC1`, the “hERG current change (%, negative = inhibition) at 10uM” value falls from 5.17% to -7.43%.

First: CC(C)CSc1n[nH]c(=S)s1
Second: CC(C)[C@@H](C(=O)N1CCNCC1)n1cc(CCO)nn1.Cl
The “hERG current change (%, negative = inhibition) at 10uM” value of the first is higher: 15.6% for the first, 12.8% for the second.

Going from `c1ccc(Oc2cccc(CN3CCCCC3)c2)cc1` to `Nc1nnc(SCC(=O)NC2CCCCC2)n1-c1ccccc1`, the “hERG current change (%, negative = inhibition) at 10uM” value rises from -45.9% to 6.78%.

First: CC(=O)Oc1ccccc1C1=NN(C(=O)/C=C/c2ccccc2)C(c2ccccc2)C1 (centres unmarked)
Second: Cc1cccn2c(=O)c(/C=C(\C#N)C(N)=O)c(Oc3ccccc3)nc12
The “hERG current change (%, negative = inhibition) at 10uM” value of the first is higher: -8.93% for the first, -8.99% for the second.

Going from `c1cnn(Cc2cnc(N3CCOCC3)s2)c1` to `CCC(=C(c1ccc(OC)cc1)c1ccc(OC)cc1)c1cn(CC(O)CN(CCO)CCO)c2ccccc12.O=C(O)/C=C\C(=O)O` (centres unmarked), the “hERG current change (%, negative = inhibition) at 10uM” value falls from 27.7% to 5.08%.
